Experimental findings from ChEMBL document CHEMBL5606460, “ASAP - DENV-2 NS2B-NS3 protease fluorescence single point” (2024) are described below.

About 110 (5.5%) of roughly 2,000 compounds showed an effect of 50% or more. The list shows a part of the results.

The target in this experiment is Genome polyprotein (dengue virus type 2) (UniProt P29990).
Where [1] appears, read: Thailand/16681/1984, Concentration 25.0 uM, Number of replicates 1.0.

As usually defined, the inhibition is the relative decrease from the control value, in per cent. With `CC(C)CNC(=O)c1cc(Cl)ccc1NS(=O)(=O)c1ccc(Oc2ccccc2Cl)cc1`, the inhibition by setting is: (Thailand/16681/1984, Concentration 49.5 uM, Number of replicates 2.0, Standard deviation 0.23411798845789034 %) 89.6%; (Thailand/16681/1984, Concentration 99.01 uM, Number of replicates 2.0, Standard deviation 0.14645254355523077 %) 88.7%; (Thailand/16681/1984, Concentration 198.0 uM, Number of replicates 2.0, Standard deviation 0.2542297902177128 %) 84.4%.
For `c1ccn2c(CNCC3CCOCC3)nnc2c1`, the inhibition by setting is: (Thailand/16681/1984, Concentration 49.5 uM, Number of replicates 2.0, Standard deviation 2.7665035419211352 %) -3.17%; (Thailand/16681/1984, Concentration 99.01 uM, Number of replicates 2.0, Standard deviation 2.4078733948373303 %) -3.24%; (Thailand/16681/1984, Concentration 198.0 uM, Number of replicates 2.0, Standard deviation 4.372243026006982 %) -2.65%.
As to `Cc1nn(CC(=O)Nc2ccc(F)cc2)cc1C1CCNCC1`, the inhibition is, setting by setting: (Thailand/16681/1984, Concentration 49.5 uM, Number of replicates 2.0, Standard deviation 1.8924243865107444 %) -1.42%; (Thailand/16681/1984, Concentration 99.01 uM, Number of replicates 2.0, Standard deviation 0.7306080535770403 %) -0.829%; (Thailand/16681/1984, Concentration 198.0 uM, Number of replicates 2.0, Standard deviation 0.9421356473344553 %) -0.039%.
For the molecule `Cn1ccnc1[C@@H](O)C1CCN(C(=O)C2CCN(c3ccc(C=O)cc3)CC2)CC1`, the inhibition under setting [1] amounted to 14%.
As for `OB1CCc2ccc(N3CC[C@@H](O)C3)cc2O1`, the inhibition by setting is: (Thailand/16681/1984, Concentration 49.5 uM, Number of replicates 2.0, Standard deviation 0.6770308743828706 %) 2.45%; (Thailand/16681/1984, Concentration 99.01 uM, Number of replicates 2.0, Standard deviation 0.2576934182283381 %) 3.1%; (Thailand/16681/1984, Concentration 198.0 uM, Number of replicates 2.0, Standard deviation 4.849321137785832 %) -0.748%.
In the case of `CC[C@H](C#N)NC(=O)c1cc(Cl)ccc1NS(=O)(=O)c1ccc(Oc2ccccc2Cl)cc1`, the inhibition by setting is: (Thailand/16681/1984, Concentration 49.5 uM, Number of replicates 2.0, Standard deviation 0.706613157296788 %) 44.6%; (Thailand/16681/1984, Concentration 99.01 uM, Number of replicates 2.0, Standard deviation 0.473003628419333 %) 22.1%; (Thailand/16681/1984, Concentration 198.0 uM, Number of replicates 2.0, Standard deviation 1.2548162043536224 %) 2.91%.
As for `O=Cc1ccc(N2CCC(C(=O)NC3CCC(C(F)(F)F)CC3)CC2)cc1` (centres undefined), under setting [1], the inhibition came out at 17.2%.
With `Cc1cnccc1NC(=O)CNCC(C)C`, the inhibition was -2.62% (Thailand/16681/1984, Concentration 49.5 uM, Number of replicates 2.0, Standard deviation 1.1660707043110226 %); -3.33% (Thailand/16681/1984, Concentration 99.01 uM, Number of replicates 2.0, Standard deviation 0.6960754336447001 %); -1.71% (Thailand/16681/1984, Concentration 198.0 uM, Number of replicates 2.0, Standard deviation 0.02675195344901679 %).
Turning to `Cc1ccc(C)c(N2CCN(C(=O)C3CCN(c4ccc(C=O)cc4)CC3)CC2)c1`, the inhibition under setting [1] worked out at 8.15%.
In the case of `Cc1cc(NC(=O)c2[nH]c([C@H]3CCCNC3)nc2C)n[nH]1`, the inhibition by setting is: (Thailand/16681/1984, Concentration 49.5 uM, Number of replicates 2.0, Standard deviation 0.1819338679741269 %) -0.694%; (Thailand/16681/1984, Concentration 99.01 uM, Number of replicates 2.0, Standard deviation 0.4335851561467917 %) -1.03%; (Thailand/16681/1984, Concentration 198.0 uM, Number of replicates 2.0, Standard deviation 0.7148425402027826 %) -1.18%.
Consider `Cc1cc(CO)c2cccc(Cc3ccccc3C(=O)NCc3ncc[nH]3)c2n1`, for which the inhibition (Thailand/16681/1984, Concentration 49.95 uM, Number of replicates 2.0, Standard deviation 0.344234553800121 %) was -9.9%.
Take `Cc1cc(Br)c(NC(=O)C2CCN(c3ccc(C=O)cc3)CC2)c([N+](=O)[O-])c1`: the inhibition under setting [1] came out at 13.2%.
As for `COc1ccccc1OCCn1cc(C2CCNCC2)c(C)n1`, the inhibition runs as follows: (Thailand/16681/1984, Concentration 49.5 uM, Number of replicates 2.0, Standard deviation 0.4008605306484476 %) -1.35%; (Thailand/16681/1984, Concentration 99.01 uM, Number of replicates 2.0, Standard deviation 0.8515456477601485 %) 0.612%; (Thailand/16681/1984, Concentration 198.0 uM, Number of replicates 2.0, Standard deviation 0.3007587308619815 %) 2.21%.
In the case of `CN(C)C(=O)CN1CCN(C(=O)C2CCN(c3ccc(C=O)cc3)CC2)CC1`, the inhibition under setting [1] was 12.6%.
As to `COc1ccccc1N1CCN(C(=O)Cc2cccc3c(CO)cc(C)nc23)CC1`, the inhibition (Thailand/16681/1984, Concentration 49.95 uM, Number of replicates 2.0, Standard deviation 0.38376020550842554 %) is -4.56% and the inhibition (Thailand/16681/1984, Concentration 99.9 uM, Number of replicates 2.0, Standard deviation 0.6884685438861432 %) was -0.371%.
Consider `CC(C)Cn1cccc(C(=O)Nc2ccncc2C(F)(F)F)c1=O`, for which the inhibition runs as follows: (Thailand/16681/1984, Concentration 49.5 uM, Number of replicates 2.0, Standard deviation 5.23322293563183 %) -3.89%; (Thailand/16681/1984, Concentration 99.01 uM, Number of replicates 2.0, Standard deviation 0.16283923825626637 %) -4.73%; (Thailand/16681/1984, Concentration 198.0 uM, Number of replicates 2.0, Standard deviation 1.971758036933884 %) -6.94%.
Consider `Cc1cc(CO)c2cccc(Cc3cccc(C(=O)NCc4sccc4C)c3)c2n1`, for which the inhibition is, setting by setting: (Thailand/16681/1984, Concentration 49.95 uM, Number of replicates 2.0, Standard deviation 0.7466793423372446 %) 1.25%; (Thailand/16681/1984, Concentration 99.9 uM, Number of replicates 2.0, Standard deviation 0.16169689007422708 %) 23.8%.
On to `Cc1cc(CO)c2cccc(Cc3ccccc3NC(=O)[C@@H]3C[C@@H](O)CN3)c2n1`, for which the inhibition amounted to 8.07% (Thailand/16681/1984, Concentration 49.95 uM, Number of replicates 2.0, Standard deviation 0.8204460631533153 %) and 21.9% (Thailand/16681/1984, Concentration 99.9 uM, Number of replicates 2.0, Standard deviation 0.7809804285572902 %).
As for `O=Cc1ccc(N2CCC(C(=O)N3CCN(c4cccc(O)c4)CC3)CC2)cc1`, the inhibition under setting [1] came out at 13.4%.
Still for that read-out and setting: for `O=Cc1ccc(N2CCC(C(=O)Nc3ccc(Oc4ccc(Cl)cc4)cc3)CC2)cc1` the value was 3.01%; for `O=Cc1ccc(N2CCC(C(=O)N3CCN(C4CCCC4)CC3)CC2)cc1`, 15.4%.
As for `Cc1cc(CO)c2cccc(Cc3cccc(NC(=O)[C@H](N)CCO)c3)c2n1`, the inhibition worked out at 12.9% (Thailand/16681/1984, Concentration 49.95 uM, Number of replicates 2.0, Standard deviation 1.3764108738319158 %) and 13.6% (Thailand/16681/1984, Concentration 99.9 uM, Number of replicates 2.0, Standard deviation 1.1119296213572014 %).
